# Measured values: PubChem BioAssay AID1468 (National Center for Advancing Translational Sciences (NCATS), 2008)
# Values joined by “and” are separate entries in the source; they are usually repeats but may differ in a detail not shown here. Equal values may be shown once. In all, about 280,000 compounds went through this assay and about 1,100 (0.39%) were called active. The shares of active, inactive and inconclusive entries below differ from those in the screen. Calls follow the shape of the dose curve; as a rule, active = well fitted inhibition curve with a large enough effect; inconclusive = small, poorly fitted or top-dose-only effect, or effect the other way; inactive = flat fitted curve, though single readings scatter. Potencies of inconclusive entries are left out as doubtful fits.
# Biological target: Microtubule-associated protein tau (Homo sapiens) (UniProt P10636)
# Chain of UniProt P10636 (P10636 whole entry, looked up): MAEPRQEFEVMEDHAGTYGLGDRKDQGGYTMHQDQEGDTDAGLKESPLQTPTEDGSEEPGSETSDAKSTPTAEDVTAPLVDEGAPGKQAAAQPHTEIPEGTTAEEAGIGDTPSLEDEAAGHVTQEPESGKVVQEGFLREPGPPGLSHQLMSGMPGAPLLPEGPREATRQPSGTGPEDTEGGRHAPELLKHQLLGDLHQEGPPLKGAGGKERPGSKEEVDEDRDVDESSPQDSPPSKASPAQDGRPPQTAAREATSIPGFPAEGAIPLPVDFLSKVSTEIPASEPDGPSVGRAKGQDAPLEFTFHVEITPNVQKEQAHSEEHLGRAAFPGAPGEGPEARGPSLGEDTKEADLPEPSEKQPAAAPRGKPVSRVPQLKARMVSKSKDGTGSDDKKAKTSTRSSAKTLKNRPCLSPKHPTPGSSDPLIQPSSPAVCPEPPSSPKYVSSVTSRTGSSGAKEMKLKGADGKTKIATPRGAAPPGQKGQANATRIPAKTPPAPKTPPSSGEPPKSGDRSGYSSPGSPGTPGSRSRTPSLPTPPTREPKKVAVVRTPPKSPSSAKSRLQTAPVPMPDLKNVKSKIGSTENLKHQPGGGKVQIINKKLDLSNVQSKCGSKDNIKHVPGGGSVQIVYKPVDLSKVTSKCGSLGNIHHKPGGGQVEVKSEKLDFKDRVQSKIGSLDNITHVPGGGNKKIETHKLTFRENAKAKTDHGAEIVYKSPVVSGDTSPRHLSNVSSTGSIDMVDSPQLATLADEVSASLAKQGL
# Assay: qHTS for Inhibitors of Tau Fibril Formation, Fluorescence Polarization; also: nearly all actives have a fitted effect of over 55% in size
# Conditions: K18 P301L tau heparin fibrillization, Alexa594 FP, 6 h; series mostly up to 57.7 µM; activity, negative = inhibition: at the top concentration
# Procedure, shortened: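 K18 P301L tau (15 uM unlabeled/0.24 uM Alexa 594-labeled, final) + compound + heparin 20 uM final; 100 mM NaOAc pH 7; 6 hr 37 C; ThT 30 uM final added, 1 hr RT; FP ex 555/em 632 nm.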
# % is scaled to controls: 0 for no effect and ±100 for the full control effect; potency is read from the fitted curve at half-maximal effect; tags tell the direction and shape of the fitted curve.
SMILES,"activity, negative = inhibition",Potency
CCC(C)C(=O)Nc1ccc(OC)cc1OC (configuration not stated),inactive: 7.1%,–
Fc1ccc(CNc2nc(-c3ccccc3)cc(C(F)(F)F)n2)cc1,–,"inconclusive [inhibitor, partial curve]"
CC(C)Oc1ccc(C(=O)Nc2ccc(Cl)c(S(=O)(=O)Nc3ccc(Cl)cc3)c2)cc1,–,"inconclusive [inhibitor, single point]"
CC(C)=CCN1CCN(Cc2cn[nH]c2C2CCCCC2)CC1CCO (configuration not stated),inactive: -1.61%,–
CN1CC=C2C(C#N)=C(N)C(C#N)(C#N)[C@H](c3ccoc3)[C@H]2C1,–,"inconclusive [inhibitor, partial curve, poor fit]"
Cc1ccccc1CN1CCCN(CC(=O)Nc2c(C)cccc2C)S1(=O)=O,inactive: -5.56%,–
COc1ccccc1N1CCN(C(CNC(=O)C(=O)NCCc2ccccc2)c2cccnc2)CC1 (configuration not stated),–,"inconclusive [inhibitor, partial curve, poor fit]"
CCN1/C(=C\c2ccc3cc(C)ccc3[n+]2CC)Sc2cc(C)c(C)cc21,–,"inconclusive [inhibitor, single point]"
CCOc1ccccc1C(=O)NN1C(=O)CCC1=O,inactive: -0.536%,–
CC1=C(C#N)C(=O)N(C2CCS(=O)(=O)C2)C(=O)/C1=C\c1ccco1 (configuration not stated),–,"inconclusive [inhibitor, partial curve]"
Cc1ccc(NC(=O)Cn2c(=O)ccc3cc(S(=O)(=O)N4CCC(C)CC4)ccc32)cc1Cl,–,"inconclusive [inhibitor, single point]"
OCC(O)C(O)C(O)C(O)C1NCCS1 (configuration not stated),–,"inconclusive [inhibitor, partial curve]"
OCC[C@@H]1C[C@@H](O)[C@H](O)[C@]2(CCCCO2)O1,–,"inconclusive [inhibitor, full curve, poor fit]"
COc1ccc(CNC(=O)C2CCN(S(=O)(=O)c3cccc4nonc34)CC2)cc1OC,–,"inconclusive [inhibitor, single point]"
Cc1cc(/C=N/NS(=O)(=O)c2ccc(F)c(Cl)c2)no1,–,"inconclusive [inhibitor, partial curve]"
CN(C)/C=C/c1onc(-c2ccccc2Cl)c1C#N,inactive: 4.5%,–
O=c1cnnc(SCCc2ccccc2)[nH]1,–,"inconclusive [inhibitor, single point]"
COc1ccc(N2CCN(C(=O)c3oc4ccccc4c3NC(=O)c3ccccc3OC)CC2)cc1,–,"inconclusive [activator, partial curve]"
Cn1c(-c2ccc(F)cc2)cnc1NCc1ccc(F)cc1,inactive: 2.25%,–
CCOc1ccccc1NC(=O)Cn1nnc(C(=O)Nc2ccc(C)c(C)c2)c1N,–,"inconclusive [inhibitor, single point]"
CC1(C#CC[N+]2(C)CCCCC2)CCC2C(O1)c1ccccc1OC2(C)C (configuration not stated),inactive: 4.75%,–
COc1ccc(CC(=O)N2CCN=C2SCc2ccc([N+](=O)[O-])cc2)cc1,inactive: -1.44%,–
Cc1ccc(Cl)cc1N1CCN(S(=O)(=O)c2cc3[nH]c(=O)c(=O)[nH]c3cc2C)CC1,–,"inconclusive [inhibitor, single point]"

SMILES,"activity, negative = inhibition",Potency
CCOc1ccc(S(=O)(=O)NC(Cc2cnc[nH]2)C(=O)O)cc1 (configuration not stated),inactive: -2.64%,–
COc1ccc(C2(CNC(=O)c3ccccc3[N+](=O)[O-])CCOCC2)cc1,inactive: 8.47%,–
O=C(CSc1nnc(-c2ccccc2)n1-c1ccc(Cl)cc1)NNC(=S)Nc1ccccc1,inactive: 6.76%,–
COc1ccc(/C=c2\s/c(=C/C(=O)c3ccc(C)cc3)[nH]c2=O)c(OC)c1,–,"inconclusive [inhibitor, partial curve, poor fit]"
O=C(CN1CCN(c2ccc(F)cc2)CC1)NCC1CCCO1 (configuration not stated),inactive: -9.53%,–
O=C(Nc1cccc(O)c1)C(Cc1ccccc1)N1C(=O)c2cccc3cccc(c23)C1=O (configuration not stated),–,"inconclusive [inhibitor, single point]"
O=C1CC(c2ccco2)CC(O)=C1C=Nc1cc(Cl)cc(Cl)c1 (configuration not stated),–,"inconclusive [inhibitor, single point]"
CCOC(=O)c1ccc(Nc2cc(-c3ccccc3)nc(C)n2)cc1,–,"inconclusive [inhibitor, full curve]"
O=C1C[C@@H](O)[C@@H](O)[C@H]2[C@@H]3C(=O)N(C4CCCCC4)C(=O)[C@@H]3CC[C@H]12,inactive: 0.762% [at 11.6 µM] and inactive: -1.71% [at 11.6 µM] and inactive: 1.69% [at 11.6 µM],–
COc1ccc(N(C(=O)CS(=O)CC(=O)Nc2ccc(F)cc2)C(C(=O)NC2CCCCC2)c2cccs2)cc1 (configuration not stated),–,"inconclusive [inhibitor, partial curve]"
Cc1ccc(NCCc2ccc(C)nc2)cc1,inactive: -7.96%,–
O=C(Nc1ccc(CN2CCOCC2)cc1)c1ccc(-c2ccc(Cl)cc2Cl)o1,inactive: -3.96%,–
O=C1C=CC2=C3c4cc(O)c(O)cc4C[C@@]3(O)COC2=C1,–,"inconclusive [inhibitor, single point]"
CCOC(=O)CSc1nc(C)c(C(C)=O)cc1C(N)=O,inactive: 12.5%,–
Cc1nn(C)cc1C(=O)NNC(=S)Nc1ccccc1,inactive: 1.49%,–
COc1ccc(NC(=O)Cn2c(SCc3ccc(C)cc3)nc3cccnc32)c(OC)c1,inactive: 4.33%,–
O=[N+]([O-])c1ccc(C2Nc3cccc4cccc(c34)N2)cc1,–,"inconclusive [inhibitor, single point]"
COc1ccccc1NC(=O)N1CCC(C(=O)c2ccc(F)cc2)CC1,inactive: 0.144%,–
COc1ccc(-c2nc(NC(=O)c3ccc(OCC(=O)Nc4ccc(F)cc4)c(OC)c3)sc2C)cc1,inactive: -14.7%,–
Cc1cc(O)c(C(C)C)cc1C1(c2cc(C(C)C)c(O)cc2C)OC(=O)c2ccccc21,–,"inconclusive [inhibitor, partial curve]"
CCn1c(=O)cc(SCC(=O)NCCc2ccc(OC)cc2OC)c2ccccc21,–,"inconclusive [inhibitor, partial curve, poor fit]"
COCCn1nnnc1C(c1cc2c(C)cc(C)cc2[nH]c1=O)N1CCCCCC1 (configuration not stated),–,"inconclusive [inhibitor, single point]"
Cn1c(COc2ccc(Br)cc2)nnc1SC1CCc2ccccc2C1=O (configuration not stated),–,"inconclusive [inhibitor, partial curve]"

SMILES,"activity, negative = inhibition",Potency
CC(CNc1ccccc1O)C(=O)O (configuration not stated),–,"inconclusive [inhibitor, partial curve]"
CCNC(=S)Nc1cc(Cl)ccc1Oc1ccccc1,–,"inconclusive [activator, full curve, poor fit]"
Nc1cc(-c2ccccc2)ccc1O,–,inactive
Oc1cccc(C=NCc2ccccc2)c1O,–,"inconclusive [inhibitor, full curve]"
COC(=O)[C@H]1O[C@@H](c2cc(OC)c(C)c(OC)c2OCc2ccccc2)[C@H](C)[C@H]2O[C@@]12C,–,inactive
CC1CC(C)CN(S(=O)(=O)c2ccc(C(=O)NCCCn3ccnc3)cc2)C1 (configuration not stated),inactive: 4.87%,–
CN1/C(=C\C(=O)COC(=O)c2ccc(O)c(O)c2)C(C)(C)c2ccccc21,–,"inconclusive [activator, partial curve, poor fit]"
CCOc1cc(/C=N/NS(=O)(=O)c2ccccc2)ccc1OS(=O)(=O)c1ccc(C)cc1,–,"inconclusive [inhibitor, partial curve]"
CC1=C(C(=O)Nc2ccccc2C)C(c2cccnc2)n2nc(SCc3ccccc3F)nc2N1 (configuration not stated),–,"inconclusive [inhibitor, full curve, poor fit]"
CCS(=O)(=O)CCSc1nc(-c2ccc(Br)cc2)cc(-c2ccccc2)c1C#N,–,"inconclusive [inhibitor, full curve]"
N#CC1=C(N)N(c2ccc(F)cc2)C2=C(C1c1ccc(O)cc1)S(=O)(=O)CC2 (configuration not stated),–,"inconclusive [inhibitor, partial curve]"
COc1ccc2nc(NC(=S)N(C)C)sc2c1,–,"inconclusive [activator, single point]"
Cc1cccc(-c2nc(SCC(=O)Nc3ccc4c(c3)OCO4)c(-c3ccccc3)[nH]2)c1,–,"inconclusive [activator, partial curve, poor fit]"
COc1cnc(-c2ccccc2)nc1Oc1ccc(C(C)(C)C)cc1,–,"inconclusive [inhibitor, partial curve]"
O=C1C(C2=C(O)c3ccccc3C2=O)=Nc2ccccc21,–,"inconclusive [inhibitor, partial curve]"
Clc1nc(Nc2ccc(N3CCOCC3)cc2)c2ccccc2n1,–,"inconclusive [activator, partial curve, poor fit]"
N#Cc1cn(-c2ccccc2)nc1-c1ccc2c(c1)OCCO2,–,"inconclusive [inhibitor, single point]"
Cc1c(N2C(=O)/C(=C\c3ccccc3O)SC2=S)c(=O)n(-c2ccccc2)n1C,–,"inconclusive [inhibitor, partial curve, poor fit]"
CCc1ccc(S(=O)(=O)c2nnn3c2nc(NCCC(C)C)c2cc(Cl)ccc23)cc1,–,"inconclusive [inhibitor, partial curve]"
O=C1c2ccccc2C(Nc2ccc(-c3nc4ccccc4[nH]3)cc2)N1Cc1ccco1 (configuration not stated),–,"inconclusive [activator, single point]"
O=C1CCC/C(=N/Nc2ccc(Cl)cc2)C1,–,"inconclusive [inhibitor, single point]"
